Measurements published in PubChem BioAssay AID2546 (National Center for Advancing Translational Sciences (NCATS), 2010).
About 11,000 (3.5%) of roughly 310,000 compounds were called active. The inconclusive results got no clear call from the source; some entries with a clear call stand among them for comparison. The call rests on the fitted dose curve; in most records, active means well fitted inhibition curve with a large enough effect; inconclusive means small, poorly fitted or top-dose-only effect, or effect the other way; inactive means flat fitted curve, though single readings scatter. Potencies of inconclusive entries are left out as doubtful fits.

assay: VP16 counterscreen qHTS for inhibitors of ROR gamma transcriptional activity; settings: Drosophila S2 Gal4-VP16 UAS-luciferase, luminescence, 20 h; series mostly up to 53.6 µM;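 further: Gal4-VP16 expression switched on by copper sulfate through the metallothionein promoter; nearly all actives have a fitted effect of over 50% in size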
Potency means the concentration at half of the fitted maximal effect; tags describe the fitted curve by direction and shape.

Row | Compound | Potency
1 | COc1ccc(S(=O)(=O)Nc2ccc(F)cc2F)cc1C(=O)N1CCOCC1 | inactive
2 | COc1cc(-c2ccccc2)nc(N)n1 | inconclusive [inhibitor, single point]
3 | Cc1cnc(NC(=O)c2cc3ccccc3o2)s1 | active: 12.6 µM
4 | COc1cc(CN2CCCC(C(=O)c3ccc4c5c(cccc35)CC4)C2)cc(OC)c1O (stereo unspecified) | inconclusive [inhibitor, single point]
5 | O=C(Nc1nnc(Cc2ccc(Cl)cc2)s1)C1CCCO1 (stereo unspecified) | inconclusive [activator, single point]
6 | O=C(NC(Cc1c[nH]c2ccccc12)C(=O)Nc1ccc(OC(F)(F)F)cc1)c1cccs1 (stereo unspecified) | inconclusive [activator, single point]
7 | CCc1ccc(NC(=O)CN(N=Nc2nonc2C)c2nonc2C)cc1 | inconclusive [inhibitor, single point]
8 | COc1cc(/C=C2\SC(N)=NC2=O)cc(Cl)c1O | inactive
9 | CCOC(=O)N1CCN(Cc2nc3c(c(=O)n(C)c(=O)n3C)n2CCCc2ccccc2)CC1 | inactive
10 | COc1ccc(Cn2c(=S)[nH]c3ccccc32)cc1 | inconclusive [inhibitor, single point]
11 | COc1ccc(NC(=O)N2CCCC3(CCN(S(=O)(=O)c4ccccc4)CC3)C2)cc1 | inactive
12 | COc1ccc(C(=O)OCC(=O)Nc2cc(S(=O)(=O)N3CCOCC3)ccc2N2CCCC2)cc1 | inactive
13 | O=C(/C=C/Nc1ccccc1Br)c1ccccn1 | inconclusive [inhibitor, partial curve, poor fit]
14 | COc1ccc(CCN2CC(C(=O)N3CCC(OC)CC3)CCC2=O)cc1 (stereo unspecified) | inactive
15 | O=C(N/N=C/c1ccc([N+](=O)[O-])o1)c1cn(-c2ccccc2)nc1-c1ccccc1 | inconclusive [inhibitor, single point]
16 | COc1ccc(-c2nnc(N(C)C(=O)c3ccno3)s2)cc1 | inconclusive [activator, full curve, poor fit]
17 | COc1ccc(C2C(C#N)=C(N)OC(C(C)(C)C)=C2C#N)cc1OC (stereo unspecified) | inactive
18 | CCOC(=O)CN1NC2(CCCC(C)C2)NC1=S (stereo unspecified) | inconclusive [inhibitor, single point]
19 | CC1CCCC(C)N1C(=O)CSc1nnnn1-c1cccc2c1CCCC2 (stereo unspecified) | inconclusive [inhibitor, single point]
20 | O=C(CSc1ncccc1-c1nc2ccccc2[nH]1)N1CCN(c2ccccc2F)CC1 | inactive
21 | CC(C)(C)NC(=S)NNC(=O)[C@H]1C[C@@H]1c1ccccc1 | inactive
